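Grown in 96-well plates, cells were treated for 48 hours with each compound at five concentrations. Insufficient inhibition: endpoint recorded as highest concentration tested. GI50 = concentration required for 50% inhibition of growth. TGI marks complete inhibition of growth.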
Test system: NCI-H322M lung
Assay: NCI-60 cell line screen, 48 h

Structure (SMILES)	TGI [µM]	GI50 [µM]
Cc1cc(C)nc(NS(=O)(=O)c2ccc(Nc3c4ccccc4nc4ccc(C(=O)Nc5ccc(S(N)(=O)=O)cc5)cc34)cc2)n1	> 100	–
CCC1C[N+]23CCc4c([nH]c5ccccc45)C2CC1CC3 (stereo unspecified)	> 100	–
CNC(=O)OCc1nc(SSC(C)(C)C)n(C)c1COC(=O)NC	31.5	–
CN(/N=C/c1ccc(C(=O)O)cc1)C1=NCCCCN1	> 100	–
O=S(=O)(O)c1ccc(N=Nc2ccc3c(S(=O)(=O)O)cccc3c2O)c2ccccc12	> 100	–
Cc1ccc(S(=O)(=O)N=Nc2c(O)[nH]c3cc(O)c(C(=O)O)cc23)cc1	> 100	–
CC(C)(C)C1=C(Br)C(C(C)(C)C)OP1(=O)O (stereo unspecified)	> 100	–
O=NNc1ccc2ccccc2n1	> 100	–
COC(=O)C1=C(OC(=O)/C(=C/c2ccccc2)c2ccc(Cl)cc2Cl)C(C(=O)OC)[C@@]2(O)[C@@H](C(=O)OC)[C@H](C)C[C@@H]1[C@@H]2C(=O)OC (stereo partly specified)	> 100	–
Cc1cc(N(CC(C)Br)CC(C)Br)ccc1N=Nc1ccccc1C(=O)O (stereo unspecified)	10.1	–
COc1cc2c(cc1OCCCCCCCCCCN1C(=O)c3cccc4cccc(c34)C1=O)N=C[C@@H]1CCCN1C2=O	42.7	–
Cc1n(CC(C)C)c2c([n+]1C)C(=O)c1ccccc1C2=O	1.13	–
O=c1[nH]c2cc(C(F)(F)F)ccc2nc1C(F)(F)F	> 100	–
Cc1ccc(S(=O)(=O)N/N=C2\CCCCC23CCC(=O)NC3)cc1 (stereo unspecified)	> 100	–
N#CCC(=O)N/N=C1/C(=O)N(c2ccc(Cl)cc2)C(=O)C(=O)C1c1nc2ccccc2s1 (stereo unspecified)	> 100	–
CCOC(=O)c1sc(=S)n(-c2ccc(Cl)cc2)c1-n1cc(-c2ccccc2)c(C#N)c1N	> 100	–
COc1cccc2c1C(=N)c1c(O)c3c(c(O)c1C2=O)C[C@@](O)(C(C)=O)C[C@@H]3O[C@H]1C[C@H](N)[C@H](O)[C@H](C)O1	9.92	2.16
Cc1ccc(S(=O)(=O)Nc2cccc3c(=O)[nH]cnc23)cc1	> 100	–
COC(=O)C1Cc2cc3c(cc2C1=O)CCC3 (stereo unspecified)	> 100	–
CCOC(=O)c1ccc(N=C/C=C(\Nc2ccc(C(=O)OCC)cc2)C23CC4CC(CC(C4)C2)C3)cc1	> 100	–
Cc1cn(C2CC(OC(=O)c3ccc(Cl)cc3)C(COC(=O)c3ccc(Cl)cc3)O2)c(=O)[nH]c1=O (stereo unspecified)	> 100	–
CC(=O)OCC1OC(N2C(c3ccccc3)=CC(c3cccs3)C(C#N)=C2S)C(OC(C)=O)C(OC(C)=O)C1OC(C)=O (stereo unspecified)	> 100	–
CCCCCCCCCCCC(=O)OCCOCCOCCOCCOCCOC(=O)CCCCCCCCCCC	> 100	–
CCCC1(CC(=O)O)OCCc2c1[nH]c1ccccc21 (stereo unspecified)	> 100	–
CC(=O)C(C(c1ccccc1)N1CCOCC1)N1CCOCC1 (stereo unspecified)	> 100	–
COc1ccc2nc(N/N=C/c3sccc3C)cc(C)c2c1	69.3	–
C=CCCON(C(=O)OC(C)(C)C)c1ccccc1	> 100	–

Structure (SMILES)	TGI [µM]	GI50 [µM]
CCCCCCCC(CC(=O)NC(CO)C(=O)NC(CO)CC(C)C)OC(=O)CC(CCCCCCC)OC(=O)CC(CCCCCCC)OC1OC(C)C(O)C(OC2OC(C)C(OC(C)=O)C(O)C2O)C1O (stereo unspecified)	22.8	–
COc1cc(NS(=O)(=O)c2ccc(C)cc2)c2nccnc2c1	> 100	–
COc1ccc(C2=C[C@]3(O)CCCN3C[C@@H]2c2ccc(OC)c(OC)c2)cc1	0.000354	–
CCOc1cccc(/C=N/NC(=O)c2cccc(Nc3ccnc(C(F)(F)F)c3)c2)c1O	61.2	0.55
COCCOC(=O)C1=C(O)c2ccccc2S(=O)(=O)N1C	> 100	–
Cc1nnc(-c2ccc(C)c(-c3ccc(C(=O)Nc4cccc(C#N)c4)cc3)c2)o1	> 25	> 25
O=C(Nc1ccc(Cl)cc1)C1C(=O)C(=O)N(c2ccc(Cl)cc2)C1=O (stereo unspecified)	> 100	–
COc1ccc(NC(=O)CC/C(CC(=O)c2ccco2)=N/NC(=O)C(N)=O)cc1	> 100	–
Cn1c(Cl)c(/C=C2/C(=O)Nc3ccccc32)c2ccccc21	29.9	1.95
NCCCNCCS	> 100	–
CCC[CH2][Sn]([CH2]CCC)([O]C(=O)CN)[O]C(=O)CN	> 100	> 100
CC(C)CCNC(=O)c1ccc(CNC(=O)/C=C/c2cccc(Oc3ccccc3)c2)cc1	> 100	–
CS(=O)(=O)CCNCc1coc(-c2ccc3ncnc(Nc4ccc(OCc5ccccc5)cc4)c3c2)c1	12.8	3.25
COc1ccc2c(c1)NC1=C(C(=O)OC1)C2c1cc(OC)c(OC)c(OC)c1 (stereo unspecified)	> 100	< 0.01
CCN1C[C@]2(C)CC[C@H](O)C34C1C(C[C@@H]32)[C@@]1(O)CC[C@H]2C[C@@H]4[C@@H]1[C@H]2O	> 100	–
Cc1c(N2C(=O)C(Cl)C2/C=C/c2ccccc2)c(=O)n(-c2ccccc2)n1C (stereo unspecified)	56.2	–
Cc1c(-c2ccccc2)cc(O)c2nc3ccccc3n12	> 100	–
COc1ccc(Cn2c(=O)c(OC)c(C)c3cc4ccccc4cc32)cc1	> 100	–
C=CCn1c(N)c(C#N)c(C#N)c1CCC	> 100	–
CNC(=O)OCc1c(COC(=O)NC)c(-c2ccc(-c3ccccc3)cc2)n(C)c1C	4.87	–
[N-]=[N+]=NCCCn1c2c(c3ccc([N+](=O)[O-])cc3c1=O)C(=O)c1ccccc1-2	> 100	> 100
CC(=O)c1ccc(NC(=O)/C(CC(=O)c2sc(-c3cccnc3)nc2C)=N/NC(N)=O)cc1	> 100	–
O=C(c1ccccc1)c1ccc2n[se]nc2c1	> 100	–
O=C1C=C(C2OC(CO)C(O)C2O)C(=O)N1 (stereo unspecified)	> 100	–
Cc1ccc(C2(O)CSC(=NC34CC5CC(CC(C5)C3)C4)N2C(P(=O)(O)O)P(=O)(O)O)cc1 (stereo unspecified)	> 100	–
CCCCCCNCCc1cnc[nH]1	> 100	–

Reference: PubChem BioAssay (NCI)
